Assay results published in the supplement of paper PMC12458215.

The sequences below were run on HEK293T (assay: plasma membrane surface immunostaining intensity (anti-HA, deep receptor scanning) (arbitrary fluorescence units); higher = higher plasma membrane expression). Conditions: GPCR class: A.

Sequence	plasma membrane surface immunostaining intensity
MARGGAGAEEASLRSNALSWLACGLLALLANAWIILSISAKQQKHKPLELLLCFLAGTHILMAAVPLTTFAVVQLRRQASSDYDWNESICKVFVSTYYTLALATCFTVASLSYHRMWMVRWPVNYRLSNAKKQALHAVMGIWMVSFILSTLPSIGWHNNGERYYARGCQFIVSKIGLGFGVCFSLLLLGGIVMGLVCVAITFYQTLWARPRRARQARRVGGGGGTKAGGPGALGTRPAFEVPAIVVEDARGKRRSSLDGSESAKTSLQVTNLVSAIVFLYDSLTGVPILVVSFFSLKSDSAPPWMVLAVLWCSMAQTLLLPSFIWSCERYRADVRTVWEQCVAIMSEEDGDDDGGCDDYAEGRVCKVRFDANGATGPGSRDPAQVKLLPGRHMLFPPLERVHYLQVPLSRRLSHDETNIFSTPREPGSFLHKWSSSDDIRVLPAQSRALGGPPEYLGQRHRLEDEEDEEEAEGGGLASLRQFLESGVLGSGGGPPRGPGFFREEITTFIDETPLPSPTASPGHSPRRPRPLGLSPRRLSLGSPESRAVGLPLGLSAGRRCSLTGGEESARAWGGSWGPGNPIFPQLTL [GPR162]	708 ± 170
MASTESSLLRSLGLSPGPGSSEVELDCWFDEDFKFILLPVSYAVVFVLGLGLNAPTLWLFIFRLRPWDATATYMFHLALSDTLYVLSLPTLIYYYAAHNHWPFGTEICKFVRFLFYWNLYCSVLFLTCISVHRYLGICHPLRALRWGRPRLAGLLCLAVWLVVAGCLVPNLFFVTTSNKGTTVLCHDTTRPEEFDHYVHFSSAVMGLLFGVPCLVTLVCYGLMARRLYQPLPGSAQSSSRLRSLRTIAVVLTVFAVCFVPFHITRTIYYLARLLEADCRVLNIVNVVYKVTRPLASANSCLDPVLYLLTGDKYRRQLRQLCGGGKPQPRTAASSLALVSLPEDSSCRWAATPQDSSCSTPRADRL [P2RY4]	607 ± 59
MATALPPRLQPVRGNETLREHYQYVGKLAGRLKEASEGSTLTTVLFLVICSFIVLENLMVLIAIWKNNKFHNRMYFFIGNLALCDLLAGIAYKVNILMSGKKTFSLSPTVWFLREGSMFVALGASTCSLLAIAIERHLTMIKMRPYDANKRHRVFLLIGMCWLIAFTLGALPILGWNCLHNLPDCSTILPLYSKKYIAFCISIFTAILVTIVILYARIYFLVKSSSRKVANHNNSERSMALLRTVVIVVSVFIACWSPLFILFLIDVACRVQACPILFKAQWFIVLAVLNSAMNPVIYTLASKEMRRAFFRLVCNCLVRGRGARASPIQPALDPSRSKSSSSNNSSHSPKVKEDLPHTAPSSCIMDKNAALQNGIFCN [S1PR3]	2240 ± 660
MDKLDANVSSEEGFGSVEKVVLLTFLSTVILMAILGNLLVMVAVCWDRQLRKIKTNYFIVSLAFADLLVSVLVMPFGAIELVQDIWIYGEVFCLVRTSLDVLLTTASIFHLCCISLDRYYAICCQPLVYRNKMTPLRIALMLGGCWVIPTFISFLPIMQGWNNIGIIDLIEKRKFNQNSNSTYCVFMVNKPYAITCSVVAFYIPFLLMVLAYYRIYVTAKEHAHQIQMLQRAGASSESRPQSADQHSTHRMRTETKAAKTLCIIMGCFCLCWAPFFVTNIVDPFIDYTVPGQVWTAFLWLGYINSGLNPFLYAFLNKSFRRAFLIILCCDDERYRRPSILGQTVPCSTTTINGSTHVLRDAVECGGQWESQCHPPATSPLVAAQPSDT [HTR4]	5930 ± 170
MDLEASLLPTGPNASNTSDGPDNLTSAGSPPRTGSISYINIIMPSVFGTICLLGIIGNSTVIFAVVKKSKLHWCNNVPDIFIINLSVVDLLFLLGMPFMIHQLMGNGVWHFGETMCTLITAMDANSQFTSTYILTAMAIDRYLATVHPISSTKFRKPSVATLVICLLWALSFISITPVWLYARLIPFPGGAVGCGIRLPNPDTDLYWFTLYQFFLAFALPFVVITAAYVRILQRMTSSVAPASQRSIRLRTKRVTRTAIAICLVFFVCWAPYYVLQLTQLSISRPTLTFVYLYNAAISLGYANSCLNPFVYIVLCETFRKRLVLSVKPAAQGQLRAVSNAQTADEERTESKGT [MCHR1]	6450 ± 72
MDLPVNLTSFSLSTPSPLETNHSLGKDDLRPSSPLLSVFGVLILTLLGFLVAATFAWNLLVLATILRVRTFHRVPHNLVASMAVSDVLVAALVMPLSLVHELSGRRWQLGRRLCQLWIACDVLCCTASIWNVTAIALDRYWSITRHMEYTLRTRKCVSNVMIALTWALSAVISLAPLLFGWGETYSEGSEECQVSREPSYAVFSTVGAFYLPLCVVLFVYWKIYKAAKFRVGSRKTNSVSPISEAVEVKDSAKQPQMVFTVRHATVTFQPEGDTWREQKEQRAALMVGILIGVFVLCWIPFFLTELISPLCSCDIPAIWKSIFLWLGYSNSFFNPLIYTAFNKNYNSAFKNFFSRQH [HTR5A]	2930 ± 720
MDMADEPLNGSHTWLSIPFDLNGSVVSTNTSNQTEPYYDLTSNAVLTFIYFVVCIIGLCGNTLVIYVILRYAKMKTITNIYILNLAIADELFMLGLPFLAMQVALVHWPFGKAICRVVMTVDGINQFTSIFCLTVMSIDRYLAVVHPIKSAKWRRPRTAKMITMAVWGVSLLVILPIMIYAGLRSNQWGRSSCTINWPGESGAWYTGFIIYTFILGFLVPLTIICLCYLFIIIKVKSSGIRVGSSKRKKSEKKVTRMVSIVVAVFIFCWLPFYIFNVSSVSMAISPTPALKGMFDFVVVLTYANSCANPILYAFLSDNFKKSFQNVLCLVKVSGTDDGERSDSKQDKSRLNETTETQRTLLNGDLQTSI [SSTR2]	4200 ± 750
MDMLHPSSVSTTSEPENASSAWPPDATLGNVSAGPSPAGLAVSGVLIPLVYLVVCVVGLLGNSLVIYVVLRHTASPSVTNVYILNLALADELFMLGLPFLAAQNALSYWPFGSLMCRLVMAVDGINQFTSIFCLTVMSVDRYLAVVHPTRSARWRTAPVARTVSAAVWVASAVVVLPVVVFSGVPRGMSTCHMQWPEPAAAWRAGFIIYTAALGFFGPLLVICLCYLLIVVKVRSAGRRVWAPSCQRRRRSERRVTRMVVAVVALFVLCWMPFYVLNIVNVVCPLPEEPAFFGLYFLVVALPYANSCANPILYGFLSYRFKQGFRRVLLRPSRRVRSQEPTVGPPEKTEEEDEEEEDGEESREGGKGKEMNGRVSQITQPGTSGQERPPSRVASKEQQLLPQEASTGEKSSTMRISYL [SSTR3]	6503 ± 49
MDPTVPVFGTKLTPINGREETPCYNQTLSFTVLTCIISLVGLTGNAVVLWLLGYRMRRNAVSIYILNLAAADFLFLSFQIIRLPLRLINISHLIRKILVSVMTFPYFTGLSMLSAISTERCLSVLWPIWYRCRRPTHLSAVVCVLLWGLSLLFSMLEWRFCDFLFSGADSSWCETSDFIPVAWLIFLCVVLCVSSLVLLVRILCGSRKMPLTRLYVTILLTVLVFLLCGLPFGILGALIYRMHLNLEVLYCHVYLVCMSLSSLNSSANPIIYFFVGSFRQRQNRQNLKLVLQRALQDKPEVDKGEGQLPEESLELSGSRLGP [MRGPRX4]	690 ± 80
MDTTMEADLGATGHRPRTELDDEDSYPQGGWDTVFLVALLLLGLPANGLMAWLAGSQARHGAGTRLALLLLSLALSDFLFLAAAAFQILEIRHGGHWPLGTAACRFYYFLWGVSYSSGLFLLAALSLDRCLLALCPHWYPGHRPVRLPLWVCAGVWVLATLFSVPWLVFPEAAVWWYDLVICLDFWDSEELSLRMLEVLGGFLPFLLLLVCHVLTQATACRTCHRQQQPAACRGFARVARTILSAYVVLRLPYQLAQLLYLAFLWDVYSGYLLWEALVYSDYLILLNSCLSPFLCLMASADLRTLLRSVLSSFAAALCEERPGSFTPTEPQTQLDSEGPTLPEPMAEAQSQMDPVAQPQVNPTLQPRSDPTAQPQLNPTAQPQSDPTAQPQLNLMAQPQSDSVAQPQADTNVQTPAPAASSVPSPCDEASPTPSSHPTPGALEDPATPPASEGESPSSTPPEAAPGAGPT [GPR152]	284 ± 16

Same assay, conditions: GPCR class: B

Sequence	plasma membrane surface immunostaining intensity
MATPRGLGALLLLLLLPTSGQEKPTEGPRNTCLGSNNMYDIFNLNDKALCFTKCRQSGSDSCNVENLQRYWLNYEAHLMKEGLTQKVNTPFLKALVQNLSTNTAEDFYFSLEPSQVPRQVMKDEDKPPDRVRLPKSLFRSLPGNRSVVRLAVTILDIGPGTLFKGPRLGLGDGSGVLNNRLVGLSVGQMHVTKLAEPLEIVFSHQRPPPNMTLTCVFWDVTKGTTGDWSSEGCSTEVRPEGTVCCCDHLTFFALLLRPTLDQSTVHILTRISQAGCGVSMIFLAFTIILYAFLRLSRERFKSEDAPKIHVALGGSLFLLNLAFLVNVGSGSKGSDAACWARGAVFHYFLLCAFTWMGLEAFHLYLLAVRVFNTYFGHYFLKLSLVGWGLPALMVIGTGSANSYGLYTIRDRENRTSLELCWFREGTTMYALYITVHGYFLITFLFGMVVLALVVWKIFTLSRATAVKERGKNRKKVLTLLGLSSLVGVTWGLAIFTPLGLSTVYIFALFNSLQGVFICCWFTILYLPSQSTTVSSSTARLDQAHSASQE [ADGRG3]	6470 ± 56

Same assay, conditions: GPCR class: C

Sequence	plasma membrane surface immunostaining intensity
MARPRRAREPLLVALLPLAWLAQAGLARAAGSVRLAGGLTLGGLFPVHARGAAGRACGQLKKEQGVHRLEAMLYALDRVNADPELLPGVRLGARLLDTCSRDTYALEQALSFVQALIRGRGDGDEVGVRCPGGVPPLRPAPPERVVAVVGASASSVSIMVANVLRLFAIPQISYASTAPELSDSTRYDFFSRVVPPDSYQAQAMVDIVRALGWNYVSTLASEGNYGESGVEAFVQISREAGGVCIAQSIKIPREPKPGEFSKVIRRLMETPNARGIIIFANEDDIRRVLEAARQANLTGHFLWVGSDSWGAKTSPILSLEDVAVGAITILPKRASIDGFDQYFMTRSLENNRRNIWFAEFWEENFNCKLTSSGTQSDDSTRKCTGEERIGRDSTYEQEGKVQFVIDAVYAIAHALHSMHQALCPGHTGLCPAMEPTDGRMLLQYIRAVRFNGSAGTPVMFNENGDAPGRYDIFQYQATNGSASSGGYQAVGQWAETLRLDVEALQWSGDPHEVPSSLCSLPCGPGERKKMVKGVPCCWHCEACDGYRFQVDEFTCEACPGDMRPTPNHTGCRPTPVVRLSWSSPWAAPPLLLAVLGIVATTTVVATFVRYNNTPIVRASGRELSYVLLTGIFLIYAITFLMVAEPGAAVCAARRLFLGLGTTLSYSALLTKTNRIYRIFEQGKRSVTPPPFISPTSQLVITFSLTSLQVVGMIAWLGARPPHSVIDYEEQRTVDPEQARGVLKCDMSDLSLIGCLGYSLLLMVTCTVYAIKARGVPETFNEAKPIGFTMYTTCIIWLAFVPIFFGTAQSAEKIYIQTTTLTVSLSLSASVSLGMLYVPKTYVILFHPEQNVQKRKRSLKATSTVAAPPKGEDAEAHK [GRM6]	1330 ± 470
MATTVPDGCRNGLKSKYYRLCDKAEAWGIVLETVATAGVVTSVAFMLTLPILVCKVQDSNRRKMLPTQFLFLLGVLGIFGLTFAFIIGLDGSTGPTRFFLFGILFSICFSCLLAHAVSLTKLVRGRKPLSLLVILGLAVGFSLVQDVIAIEYIVLTMNRTNVNVFSELSAPRRNEDFVLLLTYVLFLMALTFLMSSFTFCGSFTGWKRHGAHIYLTMLLSIAIWVAWITLLMLPDFDRRWDDTILSSALAANGWVFLLAYVSPEFWLLTKQRNPMDYPVEDAFCKPQLVKKSYGVENRAYSQEEITQGFEETGDTLYAPYSTHFQLQNQPPQKEFSIPRAHAWPSPYKDYEVKKEGS [GPRC5A]	6447 ± 50

Same assay, conditions: GPCR class: Unknown

Sequence	plasma membrane surface immunostaining intensity
MASPRLGTFCCPTRDAATQLVLSFQPRAFHALCLGSGGLRLALGLLQLLPGRRPAGPGSPATSPPASVRILRAAAACDLLGCLGMVIRSTVWLGFPNFVDSVSDMNHTEIWPAAFCVGSAMWIQLLYSACFWWLFCYAVDAYLVIRRSAGLSTILLYHIMAWGLATLLCVEGAAMLYYPSVSRCERGLDHAIPHYVTMYLPLLLVLVANPILFQKTVTAVASLLKGRQGIYTENERRMGAVIKIRFFKIMLVLIICWLSNIINESLLFYLEMQTDINGGSLKPVRTAAKTTWFIMGILNPAQGFLLSLAFYGWTGCSLGFQSPRKEIQWESLTTSAAEGAHPSPLMPHENPASGKVSQVGGQTSDEALSMLSEGSDASTIEIHTASESCNKNEGDPALPTHGDL [GPR143]	127 ± 18

± gives the uncertainty stated by the source.
